# Experimental data reported in article PMC6919601, “Identification of Plasmodium dipeptidyl aminopeptidase allosteric inhibitors by high throughput screening” (PLoS ONE, 2019).
# Values joined by “and” are separate entries in the source; they are usually repeats but may differ in a detail not shown here. Equal values may be shown once. Screen size: about 110,000 compounds; about 230 (0.21%) showed an effect of 50% or more. Some of the results follow. Where a SMILES comes first, the peptide text is derived from it.
# Target: DPAP1 (Plasmodium falciparum, UniProt Q8IIJ9)
# Test: primary screen, percent inhibition; read by cleavage of a fluorogenic dipeptide substrate; higher = more effect of the substance
# Parameters: species or system P. falciparum D10 trophozoite lysates; single well
# 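Further: 30 min substrate incubation versus DMSO and 10 µM JCP410 controls.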
# Chain of DPAP1 (Q8IIJ9 whole entry, looked up): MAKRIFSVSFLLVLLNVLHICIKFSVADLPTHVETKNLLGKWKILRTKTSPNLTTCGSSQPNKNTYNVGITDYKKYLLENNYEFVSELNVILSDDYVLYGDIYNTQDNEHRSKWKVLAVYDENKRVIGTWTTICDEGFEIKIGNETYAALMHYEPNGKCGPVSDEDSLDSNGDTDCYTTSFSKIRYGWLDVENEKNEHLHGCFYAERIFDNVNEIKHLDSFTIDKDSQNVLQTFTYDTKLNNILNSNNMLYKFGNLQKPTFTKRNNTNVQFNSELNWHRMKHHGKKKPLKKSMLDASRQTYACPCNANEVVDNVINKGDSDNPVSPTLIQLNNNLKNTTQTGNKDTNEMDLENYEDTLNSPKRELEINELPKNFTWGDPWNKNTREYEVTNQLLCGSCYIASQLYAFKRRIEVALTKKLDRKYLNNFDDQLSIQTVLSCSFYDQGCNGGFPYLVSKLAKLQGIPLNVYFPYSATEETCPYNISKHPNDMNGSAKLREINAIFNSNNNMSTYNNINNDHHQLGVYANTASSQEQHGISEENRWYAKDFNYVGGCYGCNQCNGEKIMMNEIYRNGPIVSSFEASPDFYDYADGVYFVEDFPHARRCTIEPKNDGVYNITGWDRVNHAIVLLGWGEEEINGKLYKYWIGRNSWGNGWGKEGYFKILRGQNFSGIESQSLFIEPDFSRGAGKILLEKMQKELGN
row,Compound,% Inhibition @ 10 uM
1,Cc1cc(NC(=O)Cn2nc(C(F)(F)F)c3c2CCCC3)n(-c2ccccc2)n1,0.778%
2,COc1ccc([N+]2=C3SCCCN3C(O)(c3ccc(Cl)cc3)C2)cc1 (stereo not drawn),0.258%
3,CC(C)(C)c1cc(O)n(-c2ccccc2)n1,-5.13%
4,O=C(NC(Nc1cc(C(F)(F)F)ccc1Cl)C(=O)c1ccccc1)c1ccccc1 (stereo not drawn),-5.51%
5,COCCN(CCOC)S(=O)(=O)c1ccc(C(=O)Nc2nc3c(s2)C(=O)CC(C)(C)C3)cc1,5.94%
6,CCOC(=O)c1c(S(=O)(=O)N2CCc3ccccc3C2)c(C)n(C)c1C,-7.06%
7,Cc1cc(NCCN2CCOCC2)n2c(nc3ccccc32)c1C#N,20.5%
8,Cc1nn(CCC(=O)NCCc2ccccc2Cl)c(=O)c2nn(-c3ccccc3)c(C)c12,-7.53%
9,O=C1NC(c2ccc3c(c2)OCO3)C(C(=O)c2ccccc2)C(O)(C(F)(F)F)N1 (stereo not drawn),0.00477%
10,Cc1nn(C(=O)CCC(=O)NC(C)CCc2ccccc2)c2ccccc12 (stereo not drawn),-2.88%
11,CC(=O)c1cc2c(C)c(C(=O)c3ccccc3)oc2cc1O,-4.28%
12,Oc1nc2ccccc2nc1C1=CNC2C=CC=CC12 (stereo not drawn),-8.01%
13,CCCN1CCN(C(=O)c2ccc(CS(=O)c3cccc(Cl)c3)o2)CC1 (stereo not drawn),-3.91%
14,O=C(O)CCC(=O)N(CCc1ccccc1)C1CC(=O)N(c2ccc(Cl)cc2)C1=O (stereo not drawn),2.73%
15,COc1ccc2nc3sc(C(=O)NC(C)C)cc3cc2c1,-6.91%
16,Oc1c2c(nc3nc(-c4ccc(Cl)cc4)nn13)CCC2,-0.671%
17,O=S(=O)(c1ccc(OC(F)(F)F)cc1)N1CCN(c2nc3ccccc3s2)CC1,3.27%
18,CC1CCc2c(sc(NC(=O)c3cccs3)c2C(N)=O)C1 (stereo not drawn),5.04%
19,CN(C)c1ccc(/C=C2\SC(Nc3ccc(F)cc3)=NC2=O)cc1,-3.39%
20,O=C(Nc1ccccc1C(F)(F)F)c1cccnc1,-5.81%
21,CC(C)c1ccc2oc(-c3cc(N)ccc3O)nc2c1,0.389%

row,Compound,% Inhibition @ 10 uM
1,Cc1nc(CC(=O)Nc2nnc(C)s2)cs1,-4.54%
2,CC(=O)c1c(C)n(CCOc2ccccc2F)c2ccccc12,3.36%
3,O=C(NCCCc1ccccc1)C1CCCN(S(=O)(=O)c2c[nH]cn2)C1 (stereo not drawn),-13.8%
4,O=[N+]([O-])c1ccc(O)cc1CN1CCCCCC1,-1.75%
5,CCOc1cccc(/C=C2/NC(=O)N(CC(=O)Nc3cccc(C)c3)C2=O)c1O,-6.83%
6,COc1ccc(N/C=C(\C#N)C(=O)NC(=O)c2ccccc2)cc1,-1.06%
7,CCCN(CCC)CCNC(=O)c1cc2c(s1)-c1ccccc1S(=O)(=O)C2,-0.447%
8,Cc1sc2c(C)[n+](CCCS(=O)(=O)O)sc2c1C,-4.78%
9,Cn1ncc2c1ncn1nc(-c3ccncc3)nc21,3.77%
10,COc1ccc(-c2csc(Nc3ccccc3OC)n2)cc1F,2.6% and -1.56%
11,O=C(Cc1cn2ccccc2n1)c1ccc(O)cc1O,-3.92%
12,Cc1cccnc1NC1c2ccccc2C(=O)N1Cc1ccccc1 (stereo not drawn),-1.08%
13,CC1CCC(NCCc2c[nH]c3ccccc23)CC1 (stereo not drawn),-2.56%
14,Cc1ccc2cnn(CC(=O)NCCCN3CCCC3=O)c2c1,5.39%
15,CCSc1nc(=O)n(-c2ccccc2)c(C)c1C(C)=O,-5.51%
16,CCOc1ccc2nc(NC(=O)CSc3nc(C)c(Cc4ccc(O)cc4)[nH]3)sc2c1,1.76%
17,COc1ccc(C2Nc3cc(C)ccc3N=C3CC(C)(C)CC(O)=C32)cc1OC (stereo not drawn),1.02%
18,O=C(Nc1cccnc1)c1cc(-c2ccccc2Cl)on1,0.221%
19,Cc1ccc(C(N)=O)c[n+]1Cc1ccccc1,-0.996%
20,Nc1c(-c2cccc(C(F)(F)F)c2)cnn1C(=O)c1ccc(Cl)cc1,-2.88%
21,O=C(Nc1ccc(S(=O)(=O)N2CCCCCC2)cc1)c1ccc(Br)o1,3.79%

row,Compound,% Inhibition @ 10 uM
1,CCOc1ccc(N2CC(C(=O)Nc3ccc(F)cc3)CC2=O)cc1 (stereo not drawn),-0.992%
2,CCC1CCCCN1Cc1ccc(CNC(=O)CCc2nnc3ccc(N4CCOCC4)nn23)o1 (stereo not drawn),6.76%
3,COc1ccc(/C=c2/sc3nc4c(C)cc(C)cc4n3c2=O)cc1OC,-0.053%
4,CCOc1ccc(N(CC(=O)Nc2cc(Cl)ccc2C)S(C)(=O)=O)cc1,7.89%
5,Cc1cccn2c(=O)c(/C=C(\C#N)C(=O)NCCCOC(C)C)c(Oc3ccccc3F)nc12,-5.1%
6,OCCNCc1ccccc1OCc1ccccc1Cl,-2.83%
7,O=C1/C(=C/c2cccnc2)N2CCC1CC2,7.57%
8,Cc1ccc(Cn2c(=O)c3ccccc3n3c(CCC(=O)NCCN4CCOCC4)nnc23)cc1,4.16%
9,CC1=C(c2ccc(C)c(C)c2)S(=O)(=O)N=C1N1CCC(C(=O)NCC(C)c2ccccc2)CC1 (stereo not drawn),-4.36%
10,COc1ccc(OCC(=O)Nc2cccc(C(F)(F)F)c2)cc1,2.3%
11,Nc1nonc1C(=O)NCCNCc1c(OCc2ccc(F)cc2)ccc2ccccc12,-5.33%
12,CCOC(=O)c1c(-c2ccccc2)oc2ccc(O)c(CN3CCN(C)CC3)c12,4.35%
13,Cc1ccc(C(=O)NCc2ccco2)cc1Cl,-5.46%
14,N#CC1=C(N)OC2=C(C(=O)CCC2)C1c1ccc2ccccc2c1 (stereo not drawn),-1.38%
15,COc1ccc(-c2cn3nc(N4CCCC(C(=O)Nc5cc(C)on5)C4)sc3n2)cc1 (stereo not drawn),1.46%
16,Cc1cc(C)c(S(=O)(=O)NCC2CCCO2)c(C)c1 (stereo not drawn),0.634%
17,O=C(O)c1sc2cc(F)ccc2c1Cl,0.986%
18,Cc1cccc(NC(=O)CN(C2CCCCC2)S(C)(=O)=O)c1,3.81%
19,CCCCN(Cc1ccccc1)C(=O)C1CCN(S(=O)(=O)c2cccc3nsnc23)CC1,1.69%
20,CC(C)C(NC(=O)C(N)CCCN=C(N)N)C(=O)O (stereo not drawn) (H-Arg-Val-OH; configuration not given here),4.65%
21,Cc1ccc(NC(=O)CN2C(=O)C3C4CCC(C4)C3C2=O)cc1C (stereo not drawn),3.5%
